Data from PubChem BioAssay AID1508642 (National Center for Advancing Translational Sciences (NCATS), 2021).
Out of some 43,000 compounds screened, about 200 (0.47%) were called active. Not shown: some 12% with an inconclusive outcome. Calls come from the whole dose curve; as a rule, active = well fitted cell-killing curve with a large enough effect; inconclusive = small, poorly fitted or top-dose-only effect, or effect the other way; inactive = flat fitted curve, though single readings scatter. The list shows a part of the results.

assay: Cell viability qHTS assay in S16 Pmp22-F2sN cells; conditions: S16 Pmp22-F2sN Schwann cells (luciferase reporters placed in the Pmp22 gene) viability, CellTiter-Glo, 24 h; series mostly up to 57.5 µM; activity change, negative = cytotoxicity: at the top concentration; note: nearly all actives have a fitted effect of over 65% in size
Outline: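 CellTiter-Glo counter-screen, qHTS, 1536-well. Cells: S16(c9) Pmp22-F2sN, 500-1,000/well in DMEM + 10% FBS. Cpd 23 nL pin transfer, 24 h, 37C/5% CO2. Read: luminescence, CCD imager.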
% is set by controls: 0 for no effect and ±100 for the full control effect.

Structure (SMILES) | activity change, negative = cytotoxicity
CCC(C)Sc1nc2c([nH]c3ccccc32)c(=O)n1C (configuration not stated) | inactive: 9.45%
Cc1ccccc1COC(=O)c1ccc(-c2nnn(Cc3ccccc3F)n2)cc1 | inactive: -3.52%
CCN1CCN(C(=O)c2ccc3c(c2)N(Cc2c(F)cccc2Cl)C(=O)c2ccccc2S3)CC1 | inactive: -19.5%
Cc1ccc(-c2cc(C(=O)N3CCN(S(=O)(=O)c4ccc(Br)s4)CC3)[nH]n2)cc1C | inactive: -3.02%
Cc1ccc(S(=O)(=O)n2nc(-c3ccccc3)nc2NCc2ccccc2Cl)cc1 | inactive: -12.2%
CCc1ccc(NC(=O)Cn2c(=O)n(Cc3ccc4c(c3)OCO4)c(=O)c3oc4ccccc4c32)cc1 | inactive: 25.1%
COc1ccc(CNc2nc(-c3ccco3)nn2S(=O)(=O)c2ccc3ccccc3c2)cc1OC | inactive: 9.54%
Cc1cc(C)n2nc(NCc3ccccc3Cl)nc2n1 | inactive: 8.69%
Cc1ccc(C)c(NC(=O)Cn2c(=O)n(Cc3nc(C)no3)c(=O)c3cc4c(cc32)OCO4)c1 | inactive: -2.57%
Cc1cc(-c2ccc(S(=O)(=O)NCc3ccccc3Cl)s2)on1 | inactive: -24.9%
Cc1ccc(-c2cc(-c3coc4ccccc4c3=O)c3c(n2)-c2ccccc2OC3)cc1 | inactive: 23.2%
Cc1ccc(S(=O)(=O)N2CCc3cc(C(=O)NCCc4ccccc4)ccc32)cc1 | inactive: -18.7%
COc1cccc(Cn2c(=O)cc(C)c3c(C)nn(-c4ccc(C)cc4)c32)c1 | inactive: -11.2%
CCOc1ccc(CNC(=O)C2CCN(S(=O)(=O)c3ccc4c(ccn4C)c3)CC2)cc1 | inactive: -2.85%
Cc1nn(CC(=O)NCC(C)c2ccccc2)c(=O)c2cc3ccccc3n12 (configuration not stated) | inactive: 9%
COc1cccc(CNC(=O)CCn2c(=O)c3cccn3c3cccnc32)c1OC | inactive: 15.6%
Cc1c(C(=O)Nc2ccc(-c3nc4cc(Cl)ccc4o3)cc2)oc2ccccc12 | inactive: 1.11%
Cc1ccccc1NC(=O)CSc1cn(CC(=O)N2CCCC2)c2ccccc12 | inactive: -4.6%
COc1ccc(N(C)C(=O)c2nc(-c3cccc(F)c3)n3c2CCCCC3)c(OC)c1 | inactive: 3.45%
Cc1ccc(-c2noc(-c3ccc(N4CCCCC4C)c([N+](=O)[O-])c3)n2)cc1 (configuration not stated) | inactive: 15.9%
CCCCn1c(=O)c2oc3ccccc3c2n(Cc2cccc(C)c2)c1=O | inactive: 3.25%

Structure (SMILES) | activity change, negative = cytotoxicity
O=C(Nc1nnc(S(=O)(=O)N2CCCCCC2)s1)c1cccc(Br)c1 | inactive: -8.71%
COc1ccc(NC(=O)C2CCC(CNS(=O)(=O)c3ccc4c(c3)C(C)(C)C(=O)N4C)CC2)cc1 (configuration not stated) | inactive: 5.88%
CCOc1ccc(Nc2ncnc3c2nc2n3CCCCC2)cc1 | inactive: 17.2%
Cc1cccc(N2CCN(C(=O)Cn3ncc4c3-c3ccccc3OC4)CC2)c1C | inactive: 0.596%
CC(=O)c1ccc(NC(=O)c2nc(-c3ccccc3)n(-c3ccccc3Cl)n2)cc1 | inactive: -0.241%
COc1ccc(CNCCCSc2nnnn2C)c(OC)c1 | inactive: 5.73%
CCc1nnc(SCc2ccc(F)cc2Cl)c2cc3sc(C)cc3n12 | inactive: 3.31%
O=C(COc1ccccc1)Nc1ccc2nc(SCC(=O)N3CCc4ccccc43)sc2c1 | inactive: -11.5%
CCOc1ccc(C(=O)Nc2onc3c2CCCC3)cc1 | inactive: -1.7%
N#Cc1ccccc1Cn1c(SCC(=O)Nc2ccc(F)cc2)nc2ccccc21 | inactive: 0.724%
Cn1cnc(S(=O)(=O)N2CCC(C(=O)Nc3ccc(C#N)cc3)CC2)c1 | inactive: 2.25%
CCOc1cc(C(=O)Nc2ccc(-c3nc4cc(Cl)ccc4o3)cc2)cc(OCC)c1OCC | inactive: 3.04%
CC(=O)c1cccc(-n2c(=O)c3c4c(sc3n(CC(=O)c3ccc(Cl)cc3)c2=O)CN(C(C)=O)CC4)c1 | inactive: 3.88%
CC1CCCCN1C(=O)CSc1n[nH]c(-c2ccccc2)n1 (configuration not stated) | inactive: -1.83%
Cc1cccc(C(=O)N(Cc2ccco2)Cc2ccccc2F)c1 | inactive: -2.48%
Cc1ccc(CCNC(=O)C2CC(=O)N(CCc3ccccc3)C2)cc1 (configuration not stated) | inactive: -0.75%
COc1ccc(CCNC(=O)c2ccc3c(c2)c(C)c(C)n3Cc2ccccc2)c(OC)c1OC | inactive: -21.5%
O=C(Nc1cccc(Cl)c1)c1cc(-c2ccccc2)on1 | inactive: 6.48%
COc1ccc(CNC(=O)CCCc2nnc3n(CCC(C)C)c(=O)c4sccc4n23)cc1 | inactive: 4.91%
Cn1cc(C(=O)NCCc2ccc(Cl)cc2)c(=O)c2cc(S(=O)(=O)N3CCOCC3)ccc21 | inactive: 3.96%
O=c1[nH]c(C2CCCN(S(=O)(=O)c3ccccc3Cl)C2)nc2c1nnn2Cc1ccc(OC(F)(F)F)cc1 (configuration not stated) | inactive: 4.22%

Structure (SMILES) | activity change, negative = cytotoxicity
CCC(=O)Nc1ccccc1-c1nc2ccccc2n(C(C)C(=O)Nc2ccc(OC)cc2)c1=O (configuration not stated) | inactive: 0.578%
O=C(O)c1ccc(N2C(=O)c3[nH]nc(-c4ccccc4)c3C2c2cccc(F)c2)cc1 (configuration not stated) | inactive: 16.6%
CN(c1ccccc1)c1ncnc2c1cnn2C | inactive: -14.7%
COc1ccc(N2CCN(C(=O)c3cc4cc5ccc(Cl)cc5nc4o3)CC2)cc1 | inactive: -0.81%
COc1ccc(C)cc1S(=O)(=O)NCC(c1ccc(N(C)C)cc1)N1CCc2ccccc21 (configuration not stated) | inactive: -4.79%
Cc1cc(NC(=O)N2CCC(CN3CCOCC3)CC2)ccc1Br | inactive: 5.52%
COc1cccc(C2C(=O)N(C3CCCCC3)CC(=O)N2Cc2ccc(Cl)cc2)c1 (configuration not stated) | inactive: -7.42%
Cc1ccc2c(c1)C(=O)OC(C(=O)Nc1ncc(Cc3ccccc3)s1)C2 (configuration not stated) | inactive: 7.9%
CCc1ccc(C2C(C(=O)Nc3ccc(Cl)cc3)=C(C)Nc3ncnn32)cc1 (configuration not stated) | inactive: -8.72%
CCNc1nc(Oc2ccc(=O)n(-c3ccccc3)n2)nc(N(C)C)n1 | inactive: 2.68%
CC(C)Oc1ccc(C(=O)Nc2ccc(-c3nc4ccccc4s3)cc2)cc1 | inactive: -2.71%
COc1ccc(CCC(=O)NCc2nc3cccnc3n2Cc2ccccc2)cc1 | inactive: 10.5%
Cc1ccc(Cl)cc1NC(=O)CCCN1C(=O)CCn2nc(-c3cn(C)c4ccccc34)cc21 | inactive: -2.68%
CCOc1ccc(CCNC(=O)CCn2c(=O)c3cccn3c3cccnc32)cc1 | inactive: -12.1%
COc1ccccc1C(=O)Nc1cc(-c2ccc(C)cc2)no1 | inactive: -4.57%
Cc1ccccc1Cn1c(CN2CCN(c3cc(Cl)ccc3C)CC2)nc2c1c(=O)[nH]c(=O)n2C | inactive: 1.06%
CCc1ccccc1Nc1nn2c(=O)c3ccc(C(=O)Nc4ccc(OC)cc4)cc3nc2s1 | inactive: -17.8%
CC(=O)Nc1cc(-c2ccccc2)nn1Cc1cccc(Cl)c1 | inactive: -5.16%
Cc1cccc(NC(=O)NCCOCCn2c(=O)oc3ccccc32)c1C | inactive: 0.468%
O=C(CSc1nc2ccccc2nc1Cc1ccccc1)N1CCN(c2ccccc2)CC1 | inactive: 6.2%
